{
  "source": "paper PMC5333110",
  "molecular_target": "Nterm1 (UniProt position 1, -----MQIFVK)",
  "assay": "NMR",
  "conditions": "21.5 °C, 100 mM KCl, 2 mM Tris, 2 mM formate, 2 mM piperazine, 2 mM imidazole, 0.2 mM DSS, free ubiquitin, folded throughout the pH range (checked by SOFAST-HMQC), 0.5 mM",
  "note": "Some values that stand alone complete this part of the results.",
  "data": [
    {"substance": "Ubiquitin (Homo sapiens)", "values": [
      {"measurement": "pKa", "setting": "Gln2-1HN shift, SOFAST-HMQC", "value": 9.18},
      {"measurement": "pKa", "setting": "Gln2-15N shift, SOFAST-HMQC", "value": 9.15},
      {"measurement": "pKa", "setting": "Met1-1Hα shift, HA(CA)N", "value": 9.16},
      {"measurement": "pKa", "setting": "Met1-15N shift, HA(CA)N", "value": 9.14}
    ]}
  ]
}
